Laboratory results as given in the RNAGym collection of RNA variant scans (doi:10.1073/pnas.2313332121).
Variants at the background level are over-represented here.

B1: TPR 5TU (parent)
chain: GGAUCUUCUCGAUCUAACAAAAAAGACAAAUCUGCCACAAAGCUUGAGAGCAUCUUCGGAUGCAGAGGCGGCAGCCUUCGGUGGCGCGAUAGCGCCAACGUUCUCAACUAUGACACGCAAAACGCGUGCUCCGUUGAAUGGAGUUUAUCAUG

Variants of: B1
Assay: polymerase ribozyme fitness, log enrichment relative to wild type (log ratio); higher = more active; in vitro selection for triplet polymerase activity
In short: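 Frozen incubation at −7 °C formed the core of a single, triplicate in vitro selection round applied to PCR-built, transcribed mutant libraries of each subunit of a heterodimeric triplet polymerase ribozyme. Extended constructs were gel-excised, captured with streptavidin beads and amplified by RT-PCR, and input and output libraries were Illumina-sequenced with a filter of ≥10 input reads and ≥1 read per output. Fitness is the logarithm of genotype enrichment relative to wild-type enrichment, with inverse-variance-weighted replicate averaging, and the logarithm is base 2.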

| Variant | polymerase ribozyme fitness (log ratio) |
| --- | --- |
| GGAUCUUCUCGAGCUAACAAAAAAGACAAAUCUGACACAAAGCUUGAGAACAUAUUCGGAUGCAGAGGCGGCAGCGUUCGGUGGCGGGUUAGCGCCAACGUUCUCACCUAUGACACGCAAAACGCGUGCUCCGUUGAAUGCAGUUUAUCAUG | ≤ -4.2 |
| GGAUCUUCUCGAGCUAACAAAAAAGACAAAUCUGCAACAAAGCUUGAGAGCAUCUUCGGAUGCAGAGGCGGCAGCCUUCGGUGGUGCGAUAGCGCCAACGUUCUCAACUAUGACUCGCAAAACGCGUGCUCCGUUGAACGGAGUUUAUCAUG | ≤ -4.2 |
| GGAUCUUCUCGAGCUAACAAAAAAGACAAAUCUGCCACAAAGCUUGAGAGGAUCUUCGGAUGCAGAGGCGGCAGCCUUCGGUGGCGCGAUCGCGCCAACGUUCUCAACUAUGACACGCAAAACGCGUGCUCCGUUGAAUGGAGUUUAUCAUG | ≤ -4.2 |
| GGAUCUUCUCGAGCUAACAAAAAAGACAAAUCUGCCACAAAGCUUGAGAGCAUGUUCGGAUGCAGAGGCGGCAGCCUUCGGUGGCGCGAUAGCGCCAACGUUCUCAACUAUGACACGCAAAACGCGUGCUCCGUUGAAUGGAGUUUAUCAUG | -3.62 |
| GGAUCUUCUCGAGCUAACAAAAAAGACAAAUCUGCCACAAAGCUUGAGAGCAUCUUUGGAUGCAGCGGCGGCAGCCUUCGGUGGCGCGAUAGCGCCAACGUUCUCAACUAUGACACGCAAAACGCGUGCUCCGUUGAAUGGAGUUUAUCAUG | ≤ -4.2 |
| GGAUCUUCUCGAGCUAACAAAAAAGACAAAUCUGCCACAAAGCUUGAGAGCAUCUUCGGAUGCAGAGGUGGCAGCCUUCGGUGGCGCGAUAGCGCCAACGUUCUCACCUAUGACACGCAAAACGCGUGCUCCGUUGAAUGGAGUUUAUCCUG | ≤ -4.2 |
| GGAUCUUCUCGAGCUAACAAAAAAGACAAAUCUGCCACAAAGCUUGAGAGCAUCUUCGGAUGCAGAGGCGGCAGCCUUCGGUGGCGAGAUAGCGCCAACGUUCUCAACUAUGACACGCAAAACGCGUGCUCCGUUGAAUGGAGUUGAUCAUG | ≤ -4.2 |
| GGAUCUUCUCGAGCUAACAAAAAAGACAAAUCUGCCACAAAGCUUGAGAGCAUCUUCGGAUGCAGAGGCGGCAGCCUUCGGUGGCGUGAUAGCGCCAACGUUCUCAACUAUGACACGCAAAACGCGUGCUCCGUUGAAUGGAGUUUAUCAUG | -1.62 |
| GGAUCUUCUCGAGCUAACAAAAAACACAAAUCUGCCACAAAGCUUGAGAGCAUCUUGGGAUGCAGAGGCGGCGGCCUUCGGUGGCGCGAUAGCGCCAACGUUCUCAACUAUGACACGCAAAACGCGUGCUCCGUUGCAUGGAGUUUAUCAUG | ≤ -4.2 |
| GGAUCUUCUCGAGCUAACAAAAAAGACAAAUCUGCCACAAAACUUGAGAUCAUCUUCGGAUGCAGAGGCGGCAGCAUUCGGUGGCCCGAUAGCGCCAACGUUCUCAACUAUGACACGCAAAACGCGUGCUCAGUUGAAUGGAGUUUAUCAUG | ≤ -4.2 |
| GGAUCUUCUCGAGCUAACAAAAAAGACAAAUCUGCCACAAACCUUGAGAGCAUCUUCGGAUGCAGAGGUGGCAGCCUUCGGUGGCGCGAUAGUGCCAACGUUCUCAACUAUGACACGCCAAACGCGUGCUCCGUUGAAUGGAGUUUAUCAUG | ≤ -4.2 |
| GGAUCUUCUCGAGCUAACAAAAAAGACAAAUCUGCCACAAAGCUUGAGAGCAUCUUCCGAUUCAGAGGCGGCAGCCUUCGGAGGCUCGAUAGCGCCAACGUUCUCAACUAUGACACGCAAAACGCGCGCUCCGUUGAAUGGAGUUGAUCAUG | ≤ -4.2 |
| GGAUCUUCUCGAGCUAACAAAAAAGACAAAUCUGCCACAAAGCUUGAGAGCAUCUUCGGAUGCAAAGGCAGCAGCCUUCGGUGGCGCGAUAGCACCAACGUUCUCAACUAUGACAUGCAAAACGCGUGCUCCGUUGAAUGGAUUUUAUCAUG | ≤ -4.2 |
| GGAUCUUCUCGAGCUAACAAAAAAGACAAAUCUGCCACAAAGCUUGAGAGCAUCUUCGGAUGCAGAGGCAGCAGCCUUCGCUGGCGCGAUACCGCCAACGUUCUCAACUAUGACACGCAACACGCGUGCUCCGUUGAAUGGAGUUUAUCAUG | ≤ -4.2 |
| GGAUCUUCUCGAGCUAACAAAAAAGACAAAUCUGCCACAAAGCUUGAGAGCAUCUUCGGAUGCAGAGGCGGCAGCCUUCGGUUGCGCGAUAGCGCCAACGUUCUCAAUUAUGACACGCAAAACGCGUGCUCCGUUGAAUGGAGUUUAUCAUG | ≤ -4.2 |
| GGAUCUUCUCGAGCUAACAAAAAAGACAAAUCUGCCACAAAGCUUGAGAGCAUCUUCGGAUGCAGAGGCGGCAGCCUUCGGUGGCGCGAUAGCCCCAACGUUCUCAACUAUGAGACGCAAAACGCGUGCUCCGUUGAAUGGAAUUUAUCAUG | ≤ -4.2 |
| GGAUCUUCUCGAGCUAACAAAAAAGACAAAGCUGCCACAAAGCUUGGGAGCAUCUUCGGAUGCAGAGGCGGCAGCCUUCGGUGGAACGAUAGCGCCAACGUUCUCAACUAUGACACGCAAAACGCGUGCUCUCUUGAAUGGAGUUUAUCAUG | ≤ -4.2 |
| GGAUCUUCUCGAGCUAACAAAAAAGACAAAUCAGCCACAAAGCUUGAGAGCAUUUUCGGAUGCAGAGGCGGCAGCCUUCGGUAGCGCGAUAGCGCCAACGUUGUCAACUAUGACACGCAAAACGAGUGCUCCGUUGAAUGGAGUUUAUCAUG | ≤ -4.2 |
| GGAUCUUCUCGAGCUAACAAAAAAGACAAAUCUGCCACAAAGCUUGAGAGCAGCUUCGGAUGCAGAGGCGGCAGCCUUCGGUGGCGCGAUAGCGCCAACGUUCUCAACUAUGAUACGCAAAUCGCGUGCUCCGUUGAAUGGAGUUUAUUAUG | ≤ -4.2 |

| Variant | polymerase ribozyme fitness (log ratio) |
| --- | --- |
| GGAUCUUCUCGAGCUAACAAAAAAGACAAAUCUGCCACAAAGCUUGAGAGCAUCUACGGAUGCAGAGGCGGCAGCCUUAGGUGGCGCGAUAGCGCCAACGUUCGGAACUAUGACACGCAAAACGCGUGCUCCGUUGAAUGGAGUUUAUCAUG | ≤ -4.2 |
| GGAUCUUCUCGAGCUAACAAAAAAGACAAAUCUGCCACAAAGCUUGAGAGCAUCUACGGAUGCAGAGGCGACAGCCUUCGGUGGCGCGAUAGCGCCAACGUUCUCAACUAUGACACGCAAAACGCGUGCUCCGUCGAAUGGAGUUUAUCAUG | ≤ -4.2 |
| GGAUCUUCUCGAGCUAACAAAAAAGACAAAUCUGCCACAAAGCUUGAGAGCAUCUACGGAUGCAGAGGCGGCAGCCUUCGGUGGCUCGAUAGCGCCAACGUUCUCAACUAUGACACGCAAAACGCGUGCUUCGUUGAAUGGAGUUUAUCAUG | -4.16 |
| GGAUCUUCUCGAGCUAACAAAAAAGACAAAUCUGCCACAAAGCUUGAGAGCAUCUUCGGAAGCAGAGGCGGCAGCCUUCGGUGGCGCGUUAGCGCUAACGUUCUCAACUAUGACACGCAAAACGCGUGCUCCGUUGAAUGGAGUUUAUCAUG | -3.58 |
| GGAUCUUCUCGAUAUCACAAAAAAGACGAAUCUGCCACAAAGCUUGAGAGCAUCUUCGGGUGCAGAGGCGGCAGCCUUGGGUGGCGCGAUGGCGCCAACGUUCUCAACUAUGACACGCAAACCGCGUGCUCCGUUGAAUGGAGUUUAUCAUG | ≤ -4.2 |
| GGAUCUUCUCGAUAUCACAAAAAAGACAAAUCUGCCACAAAGCUUAAGAGCAUCUUCGGAUGCAGACGCGGCAGCCUUCGGUGGAGCGAUAGCGACAACGUUCUCAACUAUGACACGCAAAACGCGUGCUCCGUUGAAUGGAGUUUAUCAUG | ≤ -4.2 |
| GGAUCUUCUCGAUAUACCAAAAAAGACAAAUCUGCAACAAAGCAAGAGAGCAUAUUCGGAUGCAGAGGCGGCAGCCUUCGGUGGGGCUAUAGCGCCAACGUUGUCAACUCUGACACGCAAAACGCGUGCUCCGUUGAAUGGAGUUUAUCAUG | ≤ -4.2 |
| GGAUCUUCUCGAUAUAGCAAAACAGACAAAUCUGCCACAAAGCUUGAGAGCAUCUUCGGAUGCAGAGGCGGCAGCCUUCGCUUGCGAGAUAGCGCCGACGUUCUCAACUAUGACACGCAAAACGCGUGCUCCGCUGAAUGGAGUUUAUCAUG | ≤ -4.2 |
| GGAUCUUCUCGAUAUAUCAAAAAAGACAAAUCUGCCACAAAGCUUGAGAGCAUCUGCGGAUGCAGAGGCGGCAACCUUCGGUGGGGCGAUAGUGCCAACGUUCUCAACUAUGACACGCAAAACGCGUGCUCCGUUGAAUGCAGUUGAUCAUG | ≤ -4.2 |
| GGAUCUUCUCGAUAUAACGAAAAAGACAAAUCUGCCACAAAGCUUGAGAGCAUCUUAGGAUGCAGAGCCGGCAGCCUUCGGUGGCGCGAUAUCGCCAACGUUGUCAACUAUGACACGCCAAACGCGAGCUCCGUUGAGUGGAGUUUAUCAUG | ≤ -4.2 |
| GGAUCUUCUCGAUAUAACGAAAAAGACAAAUCUGCCACAAAGCUUGAUAGCAUCUUCGGAUGCAGCGGCGGCGGCCUUCGGUGUCGCGAUAGCGCCAACGUUCUCAACUAUGACACGCAAAACGCGUGCUCCGUAGAAUGGAGUUUAUCAGG | ≤ -4.2 |
| GGAUCUUCUCGAUAUAACGAAAAAGACAAAUCUGCCACAAAGCUUGAGAGCAUCUUCGGAUGCAGAGACGGCAGCCUUCGGUGGCGCGAUAGCGCCAAAGUUCUCAACUAUGACACGCAAAAUGCGUGCUCCGUUGAAUGGAGUUUAUCAUG | ≤ -4.2 |
| GGAUCUUCUCGAUAUAACACAAAAGAGAAAUCUGCCACAAAGCUUGAGAGCAUCUUCGGAUGCAGAGGCGGCAGCCUUCGGUGGCGCGAUAGCGCCAACGUUCUCAACUAUGACACGCAAAACGCGUGCUCCGUUGAAUGGAGUUUAUCAUG | ≤ -4.2 |
| GGAUCUUCUCGAUAUAACAGAAAAGACAAAUCUGCCAAGAAGCUUGAGAGCAUUUUCGGAUGCAGAGGCGGCAGCCUUCGGUGGCGCGAUCGCGCCAACGUUCUCUACUAUGACACGCAAAACCCGUGCUCCGUUGAAUGGAGUUUAUCAUG | ≤ -4.2 |
| GGAUCUUCUCGAUAUAACAACAAAGACAAAUCUGCCACAAAGCUAGAGAGCAUCUUCGGUUACAGAGGCGGCAGCCUUCGGUGGCGCGAUGGCGCCAACGUUCUCAACUAUGACACGCAAAACGCGUGCUCCGUUGAAUGGAGUUUAUCAUG | ≤ -4.2 |
| GGAUCUUCUCGAUAUAACAAAACAGACAAAUCUUCCACAAAGCUUGAGAGCAUCUUGGGAUGCAGAGGCGGCAGCCUUCGGUUGCGCGAUAGCGCCACCGUUCUAAACUAUGACACGCAAAACGCGUGCUCCGUUGAAUGGAGUUUAUCAUG | ≤ -4.2 |
| GGAUCUUCUCGAUAUAACAAAAAAGCCAAAUCCGCCACAAAGCUUGAGAGCAUCUUCGGAUGCAGAGGCGGCAGCCUUCGGUGGCGGGGUAGCGCCAACGUUCUCAACUAUGACACGCAAAACGCGUGCUCCGUUGAAUGGAGUUUAUCAUG | ≤ -4.2 |
| GGAUCUUCUCGAUAUAACAAAAAAGGCAAAUCUGCCACAAAGCUUGAGAGCAACUUCGAAUGCAGAGGCGGCAGCCUUCGGUGGCGCGAUAGCGCCAACGUUCUCAACUAUGCCACGCAAAACGCGAGCUCCGUUGAAUGGAGUUUAUCAUG | ≤ -4.2 |
| GGAUCUUCUCGAUAUAACAAAAAAGUCAAAUCUGCCACAAAGCUUAAGAGCAUCUUCGGAUGCAGAGGCGGCAGCCUUCGGUGGUGCGAUAGCGCCAACGUUCUAAACUAUGGAACGCAAAACGCGUACUCCGUUGAAUGGAGUUUGUCAUG | ≤ -4.2 |
